Data on 167 variants can be found in the RNAGym collection of RNA variant scans (doi:10.7554/elife.90254).

The source gives no read counts; variants with many changes may rest on few reads.

B1: OR4K15 (parent)
chain: GUUAACGGUCAUAGGCCAUGGAAACUAGGAGCACCAUUUCGCUGCCAGUGAAGAAAUGAACAAAGAAAAUCUGGGCCAGGCAGGCAUCAAAAGAAAUAGUCUUGCGCUCAACCAGAAAGUCUGUAAUCAUUUUAAGGGUA

The variants in the data set derive from B1. Description: self-cleavage, relative activity (ratio to wild type); higher = more cleavage; in vitro, sequencing; the parent is a self-cleaving ribozyme.
With A4G U43C A114G U122C, the self-cleavage came out at 0.1. As for A5G A66G U97A A111U A117G, the figure is 0.11; as for A4G A27G A51G A55G A62G A116G, 0.41; as for A5C G7U A30U A92U A126C, 0.91. Under A5G A33U A59G stands 0.59; under A5G A13G U37G A56G, 0.39.

For A5G A18U U124A G137U, the self-cleavage amounted to 0.48.

Take U3C A23G A59G A111U: the self-cleavage is 0.26. Under A5G A47U A116U stands 0.24; under A5G A47G A54G A91G, 0.55; under A4G C32U A67U A90G G115U U132C, 0.16. Under A4G U108C A117G stands 0.02; under A5G A54C A82U U87C, 0.27; under A4G U49A U103C U122C, 0.5.

Consider A5G A69C U72A A126G A140G, for which the self-cleavage is 0.16. Take U3C A51G A62G U131C: the self-cleavage was 0.5. Under A5G A11G U19C A30G A66G A67G A69G stands 1.09. As for A4G G8A U19C A60G, the figure is 1.05. A4G A36G A62C: the self-cleavage came to 0.7. As for A5G A23G A47U A96G A114U, the figure is 0.05; as for A5G A59G G74U U120C, 0.19.

For A4G U103C A111G U124C, the self-cleavage came out at 0.02. As for U3C A11U A67U A117U, the figure is 1.02. As for A4G A5G U9C A59U A66U A125G, the figure is 0.69.

Take A5G A51U U130C: the self-cleavage turned out to be 1.

With U3C U12A A89U A98G U120C A126G, the self-cleavage was 0.05. On to U3C A36G A64G A69G, for which the self-cleavage is 0.97. As for A5G A60U A86U, the figure is 1.66; as for A5G A13U U39C C42A, 0.57. Under A5G A56G U122C U124C stands 0.49; under U3C A94G U103C U120C U127A, 0.11; under U3C A54G A62G A86G, 1.08. U3C A5G A140U: the self-cleavage came to 0.16. Regarding A5C G31A U70C, the self-cleavage was 1. Turning to A4G U103A C128A, the self-cleavage came to 0.54.

Turning to A5G A23G A36G A59G A94G, the self-cleavage is 0.83.

Turning to A4U A5G C46U A62U, the self-cleavage came out at 0.85. As to U3C A22U A55C A118G, the self-cleavage was determined as 0.91.

As for A5G A33G A66U A134G, the self-cleavage is 1.62. As for A4G U38C A82G, the figure is 1.02; as for A5G A24G U37C A62G A82C C85U A110G A111G, 0.07. Under A5G A36G U127A stands 0.65; under A5G A69G U100C, 1.48; under A5G A60G A82U A86G U122C U127C, 0.09. Under A4G A22G U38C U49C A64G stands 1.05; under A5G A30G A54G U87C A114U, 0.2; under A5G A24G A56G A64G U97A A110C, 0.59. With A4G A67C A94G U102C, the self-cleavage turned out to be 1.43. Under A5G A86U U122C stands 0.88; under A5G A95U U103C A125G, 0.13. As for A5G A23U A56G U87A U124A, the figure is 0.6. As for U3C U72A U87C, the figure is 0.68. Turning to A4G A11G A36U A47G, the self-cleavage amounted to 0.87.

For the variant A5G A91G U108C U127C, the self-cleavage was 0. Under A5G A11G A51U A62U stands 0.39; under A4G A5G A18G A56G A64G A98G A114G, 0.12. Turning to A4G G8C A60G A63G A86G, the self-cleavage was 0.65. On to A5G A24G A60G A126G, for which the self-cleavage is 0.36. Regarding A4G A56G U103C, the self-cleavage was 0.8. On to U3C C45U U120A, for which the self-cleavage was 2.69. As for A5G A86G A116G, the figure is 0.41.

With A4G A90G C109U, the self-cleavage was 0.71. Turning to A5G A13U A68U A117G, the self-cleavage stood at 1.73.

Regarding A5G A64G A78U, the self-cleavage was 0.2.

With U3C G31U U38C A62G A69U C107U, the self-cleavage is 0.08. Under U3C A56G A60G G74A A110G stands 0.19; under A5G A91G U102C, 1.31; under A5G A30G A51G A52G U132A, 0.7. As for U3C A90G U132C, the figure is 0.63. Under A5C A94U A140G stands 1.35; under A4G A52G A96G U131C, 0.94. As for U3C A67G U131C, the self-cleavage stood at 0.87.

Take A5G A89G U97C: the self-cleavage turned out to be 0.73. In the case of A4G A11G A30G, the self-cleavage was found to be 0.94. Under A5G A33G A86U stands 1.27. As for A4G A13G A114U, the figure is 0.21; as for U3C A36U A63G, 1.24. Under U3C A78U C85G A92U U120C U124C U131C stands 0.01; under A4G U37C A54G, 1.09. With A5G A24G C61A A92G U122C, the self-cleavage was 0.74. A5G C6U A54U A55G A60G A96G U131C: the self-cleavage was 0.8. Under A5G A64G A68G A86G stands 1.04. Under A5G A22U A24C A33G A92U stands 1.15; under A4G U43C A64G, 0.36; under A5G A63G A90G A135G, 1.02. As for A5G A68G A117G, the figure is 1.4; as for A5G A36U C77A A78G U87C, 0.17; as for A4G A23G A24G C40U A54G A60G A82G U122C U131C, 0.33.

In the case of A4U A68U U139C, the self-cleavage was found to be 1.36. Under A4G A59U A78G stands 0.27; under U3C A27G U38A C77U, 0.43; under A4G A92G U108C A135G, 0.04.

For A4G A5G A55G, the self-cleavage worked out at 0.68. As for A4G A24G A95G U130C, the figure is 1.32. Under A4G A30G A54G U87A A135G stands 0.84; under A4G A52G U100C, 1.55; under A4G A22G U72A U87C, 0.12. As for A5G A60U U103A U130A, the self-cleavage was determined as 0.12. Under A5C G74A U87C stands 0.19; under A5G A11G U57C U102C, 1.21; under U3G A62U A118G, 1.32. On to U3C A52G G83A A94G U97C, for which the self-cleavage was determined as 1.37. Consider U3C A23G A111G, for which the self-cleavage was determined as 0.11. As to U3G A64G A114U, the self-cleavage worked out at 0.12. As for U3C A91U A92G, the figure is 1.14; as for A4G A67G A125G, 0.45; as for A4C U37C A51G A60G U132C, 1.24.

As for U3C A23U A60G A129G U131C, the self-cleavage stood at 0.33. Under A5G A11G A47G A59G A118G stands 0.38; under U3C U19C U38C, 1.51; under U3C A52G A110U G119A, 0.95. For A5G A18G U122C, the self-cleavage was determined as 0.97. As for A4U A55G A67G A117G, the figure is 1.65; as for A5G A18U A51C A54U U122C U132C, 0.03. As for A5G A67G U108A A111U, the figure is 0.01; as for A4G A59G A82G U108C, 0.05; as for A4G G41U A47U A55C A60U A67U U102A, 0.87.

Consider U3C A23G A59G, for which the self-cleavage is 1.29.

Regarding A5G A18G A55C U100A A111G A116G U127C A135G, the self-cleavage came to 0. Under A5C U39C A89G A91G A129U stands 0.66.

As to A4G A18C A90G A95G, the self-cleavage came out at 1.95. Under A4G A18G U49C A69C A118G stands 0.96. Under A5G A56G A126G stands 0.74; under A5G A78G A117G, 0.57; under A5C A67G A98G U122C, 0.56. Turning to A5G A63U A96G G99A, the self-cleavage was 1.59.

As for A4G A23G C46U A51G A116U, the self-cleavage worked out at 0.36. In the case of A4G A62G U70C, the self-cleavage is 1.08.

Turning to A5G A60U A64G A126G, the self-cleavage turned out to be 1.51. Under A4G A22G A67G stands 0.85; under U3C A5G U12C C34U U49C A110U C112U U130A U131C, 0.01; under A5G A51G A59U A111U A118C U122C U127C, 0.01.

For A5G A33U A62G, the self-cleavage worked out at 1.65. Under A4U A86G U130C stands 0.79. U3C A22G A54G A60G U70C A118G: the self-cleavage turned out to be 0.17. Under A5G A30G U87C stands 0.78; under A4G A27U U72A A111G, 0. As for A5C A82G A117G, the figure is 1.35; as for U3C A22G U39A, 1.37. Under A5G A60G A117G stands 1.23; under A5G A56G A78U U132G, 0.13. For the variant A5G A67U U122C A129U, the self-cleavage was determined as 1.13. As for A5G A11G U38A, the figure is 0.58; as for A5C C32A A51U A54U A82U, 0.55. As for A5G A69G A126G, the figure is 0.85; as for U3C A23U A24C A94G, 1.17; as for A5G A24G A56G, 0.96. For the variant U3G U70C A92U, the self-cleavage turned out to be 0.68. Under A5C A30G A63U A66G stands 0.87; under A5G A36G C61A U131C, 0.86. Under U3C A22G A54G A89G stands 0.35. As for A4G A23G A78G C109U A117G, the figure is 0.23.

For the variant U3C U122C U130C U132C, the self-cleavage stood at 0.57. Under A5G A90G U130C U132C stands 0.83. Turning to A5G A66G C105G, the self-cleavage came out at 0.13. Under A4G U43A G58A A90G U108C G115U stands 0.02; under U3G A64G G80A A140G, 0.2. As to A5G A55G A64G, the self-cleavage was found to be 1.67. As for A5C U57C G93A A110G, the figure is 0.16. Under A5G C6U U49C A92G G93A stands 0.91.

As for A5C A33C A78G, the self-cleavage turned out to be 0.59. Under U3C A5G A11G stands 0.72; under A5G A47U A110G U122C G123A, 0.06. In the case of U3C C25U U43A U108C A129G, the self-cleavage is 0.02. As for A4G A13U C32U U72C, the figure is 0.39; as for U3C A51U U127C, 0.96; as for A4G U9C A91G, 1.52.
